# Experimental data: paper PMC4336329 (PLoS ONE, 2015)
# The campaign covered roughly 310,000 compounds. About 14,000 (4.5%) showed an effect of 50% or more. The effect is printed as a negative number. The list shows a part of the results.
# Target: human ether-à-go-go-related gene (hERG) potassium channel (human, UniProt Q12809)
# Assay: primary screen, population patch clamp on CHO cells stably expressing hERG
# 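Further: peak tail current of the secondary pulse compared with the same well before compound.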
# Sequence of human ether-à-go-go-related gene (hERG) potassium channel (Q12809 whole entry, looked up): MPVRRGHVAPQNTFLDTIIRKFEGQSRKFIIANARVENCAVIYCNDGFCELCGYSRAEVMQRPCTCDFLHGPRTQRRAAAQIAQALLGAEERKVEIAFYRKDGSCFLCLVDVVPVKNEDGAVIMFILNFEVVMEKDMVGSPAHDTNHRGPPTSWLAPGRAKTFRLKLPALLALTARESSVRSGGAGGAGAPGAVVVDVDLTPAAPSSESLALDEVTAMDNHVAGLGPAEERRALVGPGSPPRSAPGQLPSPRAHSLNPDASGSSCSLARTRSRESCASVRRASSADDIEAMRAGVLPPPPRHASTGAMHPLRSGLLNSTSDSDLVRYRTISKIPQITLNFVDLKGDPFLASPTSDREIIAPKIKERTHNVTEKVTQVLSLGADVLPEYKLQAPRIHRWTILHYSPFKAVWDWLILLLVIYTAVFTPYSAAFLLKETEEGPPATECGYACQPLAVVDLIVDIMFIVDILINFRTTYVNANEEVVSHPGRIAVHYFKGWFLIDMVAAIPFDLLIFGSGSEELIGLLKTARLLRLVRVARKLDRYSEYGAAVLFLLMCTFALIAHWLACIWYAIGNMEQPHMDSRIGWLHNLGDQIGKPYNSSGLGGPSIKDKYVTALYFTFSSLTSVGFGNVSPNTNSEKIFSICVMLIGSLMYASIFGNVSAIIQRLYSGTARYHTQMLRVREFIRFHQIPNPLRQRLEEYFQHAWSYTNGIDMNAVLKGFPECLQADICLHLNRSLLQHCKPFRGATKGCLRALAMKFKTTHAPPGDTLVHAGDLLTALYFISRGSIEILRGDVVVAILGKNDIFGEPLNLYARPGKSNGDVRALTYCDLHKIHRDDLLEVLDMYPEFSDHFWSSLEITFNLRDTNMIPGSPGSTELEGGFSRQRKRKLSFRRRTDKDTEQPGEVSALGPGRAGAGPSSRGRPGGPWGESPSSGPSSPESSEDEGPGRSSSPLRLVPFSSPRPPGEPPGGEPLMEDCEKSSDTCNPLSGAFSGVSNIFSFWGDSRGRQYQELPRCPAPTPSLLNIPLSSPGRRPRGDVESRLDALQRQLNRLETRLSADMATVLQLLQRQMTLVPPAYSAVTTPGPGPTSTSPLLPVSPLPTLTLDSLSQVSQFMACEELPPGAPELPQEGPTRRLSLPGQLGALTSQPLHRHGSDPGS
row,SMILES,"hERG current change (%, negative = inhibition) at 10uM"
1,O=C(Oc1cccc(Cl)c1)N1CCOCC1,0.554%
2,COc1ccc(Cl)cc1NC(=O)CSc1nnc(Cc2cccn2C)n1-c1ccc(F)cc1,-34.6%
3,O=C(NC1CCCC1)c1ccc2c(c1)N(Cc1ccc(F)cc1)CCS2,-30.1%
4,CN(C)c1cccc(-c2nnc(SCCCC#N)o2)c1,-5.09%
5,COc1ccc([N+](=O)[O-])cc1NC(=O)CSc1nc(C)c(C)c(C)n1,-5.9%
6,COc1ccccc1NC(=O)CN1CCN(CC(=O)Nc2ccc(F)cc2)CC1,-79.2%
7,O=c1cc(-c2ccccc2Cl)oc2c(NS(=O)(=O)c3cc(Cl)cc(Cl)c3O)ccc(O)c12,27.3%
8,COC(=O)C1=C(c2ccc(Cl)c(C(F)(F)F)c2)C[C@@H]2CC[C@H]1N2C(=O)NCC1CC1,-16.3%
9,Cc1ccc2oc(=O)c3cnn(CC(=O)N4CCCCCC4)c3c2c1,-26%
10,O=C(CCl)Nc1nc(-c2ccco2)c(-c2ccco2)s1,-10.1%
11,Cc1cc(C(=O)OCC(=O)NCc2ccc3c(c2)OCO3)c2ccccc2n1,-27.5%
12,COC(=O)c1ccc(NC(=O)c2cc[n+]([O-])cc2)cc1,10.3%
13,CCOC(=O)c1ccc(N2C(=O)C3ON(c4ccccc4)C(c4ccco4)C3C2=O)cc1 (centres unmarked),15.5%
14,Oc1ccccc1C1NN=C(c2ccccc2)S1 (centres unmarked),-15%
15,O=C(CSc1ncnc2ccccc12)Nc1cc(S(=O)(=O)N2CCCCC2)ccc1Cl,14.4%
16,Cc1ccccc1OCC(=O)NCC(=O)N/N=C/c1ccc(Br)o1,18.8%
17,COc1ccc(-c2cc3c(=O)n(CC(=O)N4CCCC4)ncn3n2)cc1,6.14%
18,Cc1cccc(N2CCN(C(=O)C3CCN(S(=O)(=O)c4c(C)noc4C)CC3)CC2C)c1 (centres unmarked),-1.76%
19,COc1ccc(-c2nn(CCC#N)cc2C(=O)Nc2ccc(C(C)=O)cc2)cc1[N+](=O)[O-],12.7%

row,SMILES,"hERG current change (%, negative = inhibition) at 10uM"
1,COc1ccc(Cl)cc1NC(=O)c1ocnc1C,10.1%
2,O=C(NCC(=O)N(c1cccc(F)c1)C(C(=O)NC1CCCC1)c1ccncc1)c1cccs1 (centres unmarked),5.32%
3,COc1ccccc1CNC(=O)CCNC(=O)C1CCN(S(=O)(=O)c2ccccc2)CC1,-7.65%
4,CC(=O)NCCC(=O)Nc1nc(C)c(Cc2ccc3c(c2)OCO3)s1,-11.9%
5,COc1ccc(N(C(=O)c2cccnc2)S(=O)(=O)c2ccc3c(c2)n(C)c(=O)n3C)cc1,-8.9%
6,CC1(C)CC(=O)CC(=Nc2ccc(C(=O)O)cc2)C1,5.93%
7,N#Cc1ncc(C(F)(F)F)cc1Sc1ccccc1N,11.2%
8,CN=C(Nc1ccc(C)c(C)c1)SC1CC(=O)N(c2ccc(OC)cc2)C1=O (centres unmarked),9.97%
9,COc1ccc(Cl)cc1NC(=O)C(C)NC(c1ccccc1)c1ccccc1 (centres unmarked),2.46%
10,O=Cc1ccccc1Oc1nc(N2CCOCC2)nc(N2CCOCC2)n1,6.2%
11,Cc1oc2ccc(O)cc2c1C(=O)c1ccccc1,5.53%
12,CC(C)(C)c1ccc(/C=C/C(=O)Nc2cccnc2)cc1,7.28%
13,Cc1ccc(C)c(NC(=O)CCc2ccc(S(=O)(=O)NC3CCCCC3)cc2)c1,19%
14,O=C(N/N=C/c1cc2c(cc1Cl)OCO2)c1ccc2c(c1)OCCO2,8.8%
15,Cc1ccc(N2CC(C(=O)OCc3nc(N)nc(Nc4ccccc4C)n3)CC2=O)cc1 (centres unmarked),-32.8%
16,Cc1ccccc1NC(=O)NCCCN1CCCC1,26.6%
17,Cc1ccn2cc(-c3cccc(NC(=O)C(C)C)c3)nc2c1,3.3%
18,COc1ccc(C2=NOC(C(=O)NCc3ccc(F)cc3)C2)cc1OC (centres unmarked),-3.78%
19,Cc1c(C(=O)N/N=C/c2cccnc2)nnn1-c1nonc1N,12.3%

row,SMILES,"hERG current change (%, negative = inhibition) at 10uM"
1,Cc1nc(N)nc(N/N=C/c2ccccc2)n1,12.3%
2,O=C(O)c1cc(C(=O)O)c(-c2ccccc2)c(C(=O)O)c1,-12.4%
3,NNC(=O)c1ccc(Cn2cc(Br)c(N)n2)cc1,18.2%
4,O=C(NCc1ccccn1)c1cccc(S(=O)(=O)Nc2ccccc2Cl)c1,-2.4%
5,Oc1cc2c(cc1CN1CCN(c3ccc(F)cc3)CC1)OCO2,-1.5%
6,CCOCCCNC(=S)N(CCN(C)C)Cc1cc2cc3c(cc2[nH]c1=O)OCCO3,22.7%
7,CCOC(=O)c1sc(NC(=O)CNCc2cccnc2)c(C(=O)OCC)c1C,-11.4%
8,CC1=NN(c2ccc(C(=O)O)c(N)c2)C(=O)C1,20.2%
9,CC(C)Nc1nc(NC(C)C)nc(N(C)n2cnnc2)n1,5.59%
10,Cc1onc(-c2ccc(Cl)cc2Cl)c1-c1csc(N/N=C/c2ccccc2Cl)n1,4.09%
11,CCC1(c2ccccc2)NC(=O)N(CC(=O)NCc2ccc(C)cc2)C1=O (centres unmarked),4.8%
12,Cc1cccc(NC(=O)Cn2c(=O)n3nc(CCn4nc(C)cc4C)nc3c3ccccc32)c1,-23.9%
13,O=C(Cc1cccs1)N/N=C/C=C/c1ccccc1[N+](=O)[O-],-0.125%
14,Cc1ccc(S(=O)(=O)N2CCOCC2)cc1NC(=O)COC(=O)C1=COCCO1,19.9%
15,CCc1csc(CCNC(=O)C2CCC(=O)N(CCc3cccc(F)c3)C2)n1 (centres unmarked),-13.4%
16,Cc1ccc(NC2=CC(=O)CC(c3ccc(Cl)cc3)C2)cc1 (centres unmarked),13.2%
17,COc1cccc(CNC(=O)Cn2c(=O)c3cccn3c3ccccc32)c1,19%
18,COc1ccc(/C=N/N2CCN(c3ccncc3S(=O)(=O)N3CCCCC3)CC2)cc1,10.3%
